Experimental data published in PubChem BioAssay AID894 (National Center for Advancing Translational Sciences (NCATS), 2007).
In all, about 150,000 compounds went through this assay and about 6,500 (4.3%) were called active. Inconclusive means that the source gave no clear call. Such entries were picked first, then a sample of the others. The call rests on the fitted dose curve; in most records, active means well fitted inhibition curve with a large enough effect (not every such curve was filed as active); inconclusive means small, poorly fitted or top-dose-only effect, or another doubt; inactive means no such curve, though single readings can be large or run the other way. No potency is given beside an inconclusive call; the fits are too rough.

Biological target: 15-hydroxyprostaglandin dehydrogenase [NAD(+)] (Homo sapiens) (UniProt P15428)
Assay: qHTS Assay for Inhibitors of HPGD (15-Hydroxyprostaglandin Dehydrogenase)
Conditions: purified HPGD, NADH fluorescence kinetic, PGE2 substrate; activity change, negative = inhibition: active compounds read low
Outline: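 NADH formation kinetics: reaction with 30 uM PGE2 and 1 mM NAD+ (final), 20 nM enzyme, Tris-HCl pH 8 with Tween 20, after 15 min compound preincubation at room temperature. Fluorescence change, last versus first of five reads.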
On the % scale 0 is the no-effect control and ±100 the full control effect; potency means the concentration at half of the fitted maximal effect; tags describe the fitted curve by direction and shape.

Chain of UniProt P15428 (P15428 whole entry, looked up): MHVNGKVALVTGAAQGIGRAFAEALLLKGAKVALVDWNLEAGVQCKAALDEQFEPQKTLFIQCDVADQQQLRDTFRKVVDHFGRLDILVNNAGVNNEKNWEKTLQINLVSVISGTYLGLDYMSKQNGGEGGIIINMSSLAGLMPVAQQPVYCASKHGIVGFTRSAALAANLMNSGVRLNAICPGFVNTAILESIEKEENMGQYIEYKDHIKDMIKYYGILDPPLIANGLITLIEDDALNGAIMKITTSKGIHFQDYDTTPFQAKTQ

SMILES	Potency	activity change, negative = inhibition
CCOC(=O)c1c(NC(=O)CC)sc(C(=O)N2CCCCC2)c1C	active: 28.2 µM	
Cc1cc(C)cc(C(=O)NCC(=O)OCc2cc([N+](=O)[O-])cc3c2OCOC3)c1	inconclusive [inhibitor, partial curve]	
C=CCn1c(SCC(=O)c2cccs2)nc2sc(C)cc2c1=O	inconclusive [inhibitor, partial curve]	
O=C(Nc1ccccc1)c1ccccc1O	inconclusive [inhibitor, partial curve]	
CCC1=C2CC[C@H]3C(=O)N(CC)C(=O)[C@H]3[C@H]2[C@@]2(C)C(=NCCc3c[nH]c4ccccc34)OC(=O)N2C1=O		inactive: -9.07%
CCCCOC(=O)n1c(=S)oc2cc(Cl)ccc21		inactive: -21.8%
CCOC(=O)CC(=O)CSc1ccc2nnc(-c3cccc(F)c3)n2n1	inconclusive [inhibitor, partial curve]	
CN1CCN(c2nc3c(c(=O)n(C)c(=O)n3C)n2C)CC1		inactive: -7.24%
CC(=O)Nc1ccc(NC(=O)c2ccccc2Sc2ccc([N+](=O)[O-])cc2Cl)cc1		inactive: -16.7%
O=C(NCc1ccccn1)c1coc(=O)c(Br)c1	inconclusive [inhibitor, partial curve]	
Cc1cc(C(=O)OCC(=O)N2CC(C)CC(C)C2)c(C)o1 (stereo not given)		inactive: -8.37%
Cc1cc(NCCCN(C)C)n2nc(-c3cccs3)cc2n1	inconclusive [inhibitor, partial curve]	
CCOC(=O)c1c(NC(=O)CSc2nnc(-c3cccc(C)c3)n2CC)sc(C(C)=O)c1C	active: 15.8 µM	
CCOCCCNC(=O)c1cc2c(-c3ccc(Cl)cc3)nn(C)c2s1	inconclusive [inhibitor, partial curve]	
CN(C)S(=O)(=O)c1ccc(Nc2nc(C3CC3)nc3c2nnn3Cc2ccccc2Cl)cc1	inconclusive [inhibitor, partial curve]	
Cc1cccc(N2C(=O)CC(N3CCN(c4cccc(C(F)(F)F)c4)CC3)C2=O)c1 (stereo not given)		inactive: -20.1%
CN(C)S(=O)(=O)c1ccc(C(=O)Nc2cc(S(=O)(=O)Nc3ccccc3Cl)ccc2N2CCCCC2)cc1	inconclusive [inhibitor, partial curve, poor fit]	
C=COCCNC(=O)C1CC(=O)N(c2ccc(C)cc2)C1 (stereo not given)		inactive: 0.398%
O=C(NCc1ccncc1)C12CC3CC(CC(C3)C1)C2		inactive: -17.9%
Cc1cccc(-c2nnn3c2nc(NCCc2ccc(S(N)(=O)=O)cc2)c2ccccc23)c1	inconclusive [inhibitor, partial curve]	
COc1ccccc1CNC(=O)c1cccc(N(C)C)c1		inactive: -27.1%
Cc1cccc(C(=O)Nc2ccccc2C(=O)OCC(=O)Nc2ccc(C#N)cc2)c1	inconclusive [inhibitor, partial curve]	
COC(=O)c1cc(OC)c(OC)cc1NCC(=O)Nc1ccc(OC)c(OC)c1	inconclusive [inhibitor, partial curve]	
Cc1nnc(SCC(=O)Nc2ncc(Cc3ccc(F)cc3)s2)n1N		inactive: -8%
CCSc1nnc(-c2ccc(S(=O)(=O)N3CCOCC3)cc2)n1CC1CCCO1 (stereo not given)	inconclusive [inhibitor, partial curve]	

SMILES	Potency	activity change, negative = inhibition
Cc1ccc2nc(-c3ccccn3)oc2c1	inconclusive [inhibitor, partial curve]	
CN1c2ccccc2-c2nc3ccccc3n2C1c1ccccn1 (stereo not given)	inconclusive [inhibitor, partial curve]	
CC1CCN(C(=O)c2ccc(COc3ccccc3Cl)o2)CC1	active: 15.8 µM	
Cc1cc(C(=O)COc2ncnc3sccc23)c(C)n1C1CC1		inactive: -10.3%
CCN(CC)C(=S)SCC(=O)Nc1ccc(F)cc1	active: 17.8 µM	
COc1cccc2[nH]c3c(N4CCCCC4)ncnc3c12	inconclusive [inhibitor, partial curve]	
Cc1cccc(-c2noc(CCC(=O)NCC3CCCO3)n2)c1 (stereo not given)	active: 25.1 µM	
CCOC(=O)Nc1nnc(-c2ccccc2OC)s1	inconclusive [inhibitor, partial curve]	
CSc1nnnn1-c1cccc(O)c1		inactive: -12.1%
CCOC(=O)N1CCN(S(=O)(=O)c2ccc(OCC)c3ccccc23)CC1	active: 28.2 µM	
CC(C)(C)c1ccc(CSc2nnc(-c3ccccc3NC(=O)c3ccccc3)o2)cc1	inconclusive [inhibitor, single point]	
O=[N+]([O-])c1ccc(Cl)cc1Cl		inactive: -1.58%
CCOC(=O)c1c(C)oc2cc(Br)c(OC(C)C(=O)OCC)cc12 (stereo not given)		inactive: -23.8%
Cc1nc2[nH]c(=O)c3c(n2n1)NC1=C(C(=O)CC(C)(C)C1)C3c1ccc(F)cc1 (stereo not given)	inconclusive [inhibitor, partial curve]	
COc1ccc(C2C(=O)c3ccccc3C2=O)cc1	inconclusive [inhibitor, single point]	
O=C(Nc1ccc2c(c1)ncn2-c1ccccc1)c1ccco1	active: 31.6 µM	
CCOC(=O)C(C)/C(C)=N/NC(N)=S (stereo not given)	inconclusive [inhibitor, partial curve]	
Cc1cnn(-c2ccc3nnc(-c4ccc(Br)cc4)n3n2)c1	inconclusive [inhibitor, single point]	
Cc1cc(C)c(C#N)c(SCC(=O)c2ccc(Cl)cc2Cl)n1		inactive: -17.5%
CS(=O)(=O)Nc1cccc(-c2nc(Nc3ccccc3)c3ccccc3n2)c1	inconclusive [inhibitor, single point]	
CCCCN(C(=O)c1ccco1)c1nnc(-c2cc(OC)c(OC)c(OC)c2)s1	inconclusive [inhibitor, partial curve]	
CCOCCCNC(=O)C1CCC(CNS(=O)(=O)c2cccc3nsnc23)CC1 (stereo not given)	active: 25.1 µM	
Cc1nc2cnc(Oc3ccccc3)nc2n(CCc2ccccc2)c1=O		inactive: -3.1%
CC(=O)C1=C(C)NC(SCC(=O)c2ccc(Cl)c(Cl)c2)=C(C#N)C1c1ccco1 (stereo not given)	active: 22.4 µM	
Cn1cc([N+](=O)[O-])c(C(=O)Nc2ccc(C(=O)N3CCCCC3)cc2)n1	active: 0.398 µM	

SMILES	Potency	activity change, negative = inhibition
CCOc1ccc2c(c1)n(CO)c(=S)n2CO	inconclusive [inhibitor, single point]	
Cc1ccccc1CS(=O)(=O)Cc1ccc(C(=O)NCc2ccco2)o1		inactive: 1.01%
COc1ccc(-c2cc(=O)c3cc(OC)c(OC)cc3[nH]2)cc1	inconclusive [inhibitor, partial curve]	
O=C(Nc1cccnc1)c1ccccc1O	inconclusive [inhibitor, single point]	
O=C(Nc1cccnc1)c1cc(-c2ccc3c(c2)OCO3)on1	inconclusive [inhibitor, partial curve]	
CCCCOC(=O)c1ccc(NC(C)=O)cc1	inconclusive [inhibitor, partial curve]	
COc1ccc2nc(NC(=O)C3CCN(S(=O)(=O)c4cccs4)CC3)sc2c1		inactive: -15.1%
Cc1cccc(NC(=O)/C=C/c2cccs2)n1	active: 28.2 µM	
CCOCCCNC(=O)c1ccc(CS(=O)(=O)Cc2cccc(C)c2)o1		inactive: -8.54%
O/N=C1\CCCC\C1=C/c1ccccc1	active: 4.47 µM	
N#Cc1ccc(N=c2ssnc2Cl)cc1	active: 2 µM	
O=C(NCc1ccco1)C12CN(Cc3ccccc3)CC1C(c1ccc([N+](=O)[O-])cc1)=NO2 (stereo not given)		inactive: -12.8%
CCCc1nnc(NC(=O)Cn2c(=O)oc3ccccc32)s1	active: 28.2 µM	
CCOc1ccc2[nH]c(=O)c(C(c3nnnn3C3CCCCC3)N3CCN(C)CC3)cc2c1 (stereo not given)	inconclusive [inhibitor, partial curve]	
CSc1ccccc1-n1nnnc1SCC(=O)NCc1cccs1		inactive: -10.7%
Cc1cc(Cl)ccc1Oc1nccc(N(C)C)c1C#N		inactive: -18.6%
O=C(CSCC(=O)N1CCCCC1)Nc1nc(-c2ccccc2)c(-c2ccccc2)s1	inconclusive [inhibitor, single point]	
CCOc1c2ccc(C(=O)NCc3ccc4c(c3)OCO4)cc2nn1CC	inconclusive [inhibitor, partial curve]	
CCCCOc1ccc(C(=O)N/C(=C/C=C/c2ccccc2)C(=O)NCCCO)cc1	inconclusive [inhibitor, partial curve]	
Cc1ccc(C)c(-n2c(-c3csc(C)c3C)n[nH]c2=S)c1	inconclusive [inhibitor, partial curve]	
Cc1cccc(NC(=O)c2sc3nc(-c4ccc(F)cc4)cn3c2C)n1	inconclusive [inhibitor, partial curve]	
CCN(CC(=O)Nc1ccc2c(c1)OCCO2)Cc1cc(=O)oc2c(C)c(C)ccc12		inactive: -17.4%
Cc1ccccc1NC(=O)c1csc2c1CCCC2	active: 15.8 µM	
COc1ccc(CCNC(=O)CSc2nc(N)c(C#N)c(-c3cccs3)c2C#N)cc1OC	inconclusive [inhibitor, single point]	
CC(=O)NNC(=S)NC(=O)c1cccc([N+](=O)[O-])c1	active: 28.2 µM	
